Earlier results as cited in publication PMC8227400, “Novel N-Arylsulfonylindoles Targeted as Ligands of the 5-HT6 Receptor. Insights on the Influence of C-5 Substitution on Ligand Affinity” (Pharmaceuticals, 2021).

biological target: human 5-HT6 receptor (Homo sapiens, UniProt P50406); parameters: expressed in transfected cells; host or cells: HEK-293; settings: C-5 unsubstituted derivatives previously reported; cited from earlier work
Sequence of UniProt P50406 (P50406 whole entry): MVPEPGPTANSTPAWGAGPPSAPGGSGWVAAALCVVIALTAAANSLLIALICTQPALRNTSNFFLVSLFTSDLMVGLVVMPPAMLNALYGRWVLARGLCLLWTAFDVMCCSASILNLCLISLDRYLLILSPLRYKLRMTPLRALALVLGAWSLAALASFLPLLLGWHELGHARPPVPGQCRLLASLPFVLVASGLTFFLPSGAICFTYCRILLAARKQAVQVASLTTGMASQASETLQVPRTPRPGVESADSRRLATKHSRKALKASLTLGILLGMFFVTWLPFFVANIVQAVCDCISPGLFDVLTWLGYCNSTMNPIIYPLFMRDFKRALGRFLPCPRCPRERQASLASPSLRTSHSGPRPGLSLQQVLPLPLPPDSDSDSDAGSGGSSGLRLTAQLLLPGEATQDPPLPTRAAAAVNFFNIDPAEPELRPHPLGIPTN

Row | SMILES | Ki
1 | Cc1ccc(S(=O)(=O)n2cc(C(O)CN3CCN(c4ncccn4)CC3)c3ccccc32)cc1 (stereo not shown) [PUC16] | 851 nM
2 | COc1ccccc1N1CCN(CC(O)c2cn(S(=O)(=O)c3ccc(I)cc3)c3ccccc23)CC1 (stereo not shown) [PUC-7] | 18.4 nM
3 | O=S(=O)(c1ccc(I)cc1)n1cc(C(O)CN2CCN(c3ccccn3)CC2)c2ccccc21 (stereo not shown) [PUC-9] | 371 nM
4 | COc1ccccc1N1CCN(CC(O)c2cn(S(=O)(=O)c3cccc4ccccc34)c3ccccc23)CC1 (stereo not shown) [PUC-10] | 14.6 nM
5 | COc1ccc(S(=O)(=O)n2cc(C(O)CN3CCOCC3)c3ccccc32)cc1 (stereo not shown) [PUC-22] | 891 nM
6 | Cc1ccc(S(=O)(=O)n2cc(C(O)CN3CCN(c4ccccn4)CC3)c3ccccc32)cc1 (stereo not shown) [PUC-24] | 479 nM
7 | COc1ccccc1N1CCN(CC(O)c2cn(S(=O)(=O)c3ccc(C)cc3)c3ccccc23)CC1 (stereo not shown) [PUC-32] | 13.6 nM
